Measured values as given in PubChem BioAssay AID1460 (National Center for Advancing Translational Sciences (NCATS), 2008).
About 5,800 (2.1%) of roughly 270,000 compounds were called active. Inconclusive results, whose numbers are uncertain, are shown with a selection of clear calls. The call rests on the fitted dose curve; in most records, active means well fitted inhibition curve with a large enough effect; inconclusive means small, poorly fitted or top-dose-only effect; inactive means flat fitted curve, though single readings scatter. Where the call is inconclusive, the potency comes from a doubtful curve fit.
Further: nearly all actives have a fitted effect of over 55% in size.
On the % scale 0 is the no-effect control and ±100 the full control effect; potency means the concentration at half of the fitted maximal effect; tags describe the fitted curve by direction and shape.

What follows are molecules tested against Microtubule-associated protein tau (Homo sapiens) (UniProt P10636) (assay: qHTS for Inhibitors of Tau Fibril Formation, Thioflavin T Binding). Conditions: recombinant tau K18 P301L (four-repeat tau fragment), heparin-induced fibrillization, ThT fluorescence; series mostly up to 57.4 µM; activity, negative = inhibition: at the top concentration.
UniProt P10636, sequence (P10636 whole entry, looked up, the tested form may be a part): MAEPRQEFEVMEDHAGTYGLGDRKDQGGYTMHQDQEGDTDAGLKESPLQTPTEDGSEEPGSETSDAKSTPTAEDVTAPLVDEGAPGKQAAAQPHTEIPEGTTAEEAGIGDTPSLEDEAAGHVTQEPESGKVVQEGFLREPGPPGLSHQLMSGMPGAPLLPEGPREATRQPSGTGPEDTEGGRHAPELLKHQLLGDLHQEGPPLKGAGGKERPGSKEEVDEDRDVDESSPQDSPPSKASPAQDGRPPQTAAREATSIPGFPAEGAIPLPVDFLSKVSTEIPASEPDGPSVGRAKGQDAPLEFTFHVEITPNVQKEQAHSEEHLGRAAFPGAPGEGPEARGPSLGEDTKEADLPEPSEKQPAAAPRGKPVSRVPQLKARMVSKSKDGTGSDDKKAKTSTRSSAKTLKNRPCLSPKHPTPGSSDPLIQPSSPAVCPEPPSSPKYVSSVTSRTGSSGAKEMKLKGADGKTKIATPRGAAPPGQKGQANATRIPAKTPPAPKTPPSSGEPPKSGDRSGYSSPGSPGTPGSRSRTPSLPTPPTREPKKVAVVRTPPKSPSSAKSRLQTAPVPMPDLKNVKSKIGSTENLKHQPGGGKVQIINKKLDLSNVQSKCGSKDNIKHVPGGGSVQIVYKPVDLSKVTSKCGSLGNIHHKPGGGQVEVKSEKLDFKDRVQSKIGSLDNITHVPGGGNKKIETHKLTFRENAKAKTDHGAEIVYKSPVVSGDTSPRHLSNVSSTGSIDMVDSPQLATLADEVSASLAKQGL
Method in brief: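 Aggregation was driven by heparin (20 uM final) acting on recombinant tau […] bearing P301L in 100 mM sodium acetate pH 7; fibrils were detected with Thioflavin T.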
In the case of `CCOc1ccc(S(=O)(=O)NCc2cccn2Cc2cccc(C)c2)cc1`, the “activity, negative = inhibition” value was inactive: 5.68%.
For `C=CCn1c(-c2cccc3ccccc23)n[nH]c1=S`, the “activity, negative = inhibition” value was inactive: -9.31%.
For `COc1ccc(-c2nc(-c3cccs3)c(-c3cccs3)[nH]2)cc1O`, the Potency was active: 12.6 µM.
For `O=S(=O)(Nc1ccc(N2CCCCC2)cc1)c1cccs1`, the Potency was inconclusive: 22.4 µM [inhibitor, partial curve].
For `Nn1c(COc2cccc(Cl)c2)nc2ccccc2c1=O`, the Potency was inconclusive: 39.8 µM [inhibitor, single point].
With `Cc1c(NS(=O)(=O)c2ccc3c(c2)OCCO3)cccc1-c1nc2cccnc2s1` the “activity, negative = inhibition” value was inactive: -6.31%.
With `CCOC(=O)C1C(=O)C=C(c2ccc(OC)cc2)CC1c1ccco1` (stereo unspecified) the Potency was inconclusive: 20 µM [inhibitor, partial curve].
With `COc1ccc(C(=O)N2CCN(c3nc4c(OC)cccc4s3)CC2)cc1OC` the “activity, negative = inhibition” value was inactive: -17.6%.
For `Cc1[nH]nc(Nc2ccc(Br)cc2)c1[N+](=O)[O-]`, the Potency was active: 6.31 µM.
With `CCOc1cc(/C=N/N=C2/NC(=O)C(CC(=O)O)S2)ccc1OCc1ccccc1Cl` (stereo unspecified) the Potency was inconclusive: 11.2 µM [inhibitor, partial curve].
With `O=[N+]([O-])c1cc(/C=N/N/C(=N/c2ccccn2)c2ccccn2)ccc1O` the Potency was inconclusive: 15.8 µM [inhibitor, partial curve].
`COc1ccccc1OCc1nc2ccccc2s1` was tested, and the Potency was inconclusive: 12.6 µM [inhibitor, partial curve].
For `Cc1cc(=O)oc2ccc(OC(=O)c3cccc(S(=O)(=O)N4CCOCC4)c3)cc12`, the Potency was inconclusive: 35.5 µM [inhibitor, single point].
For `COc1cc(C(=O)NCc2nc(-c3ccc(Cl)cc3)no2)cc(OC)c1OC`, the “activity, negative = inhibition” value was inactive: -6.43%.
In the case of `N#CCCN1CCN(C2=NC(=O)/C(=C\c3cccs3)S2)CC1`, the Potency was inconclusive: 25.1 µM [inhibitor, single point].
In the case of `Cc1ccc2c(c1)/C(=C/c1ccco1)C(=O)N2`, the Potency was active: 11.2 µM.
In the case of `Cc1cccc(NC(=O)c2cc3c([nH]c2=O)CC(c2ccccc2)CC3=O)c1` (stereo unspecified), the “activity, negative = inhibition” value was inactive: -5.46%.
`CC(=O)Nc1sc2c(c1-c1nc3ccccc3s1)CCN(C(C)C)C2` was tested, and the “activity, negative = inhibition” value was inactive: -0.826%.
`COc1ccc(CCNC(=O)Cc2ccc(NC(=O)N3CCSc4ncccc43)cc2)cc1OC` was tested, and the “activity, negative = inhibition” value was inactive: 1.28%.
For `O=C(CCN1Cc2ccccc2C1)c1ccc2c(c1)OCCO2`, the Potency was inconclusive: 3.16 µM [inhibitor, partial curve, poor fit].
With `COc1ccccc1/C=C1/SC(=O)N(CCC(=O)Nc2ccc(S(=O)(=O)Nc3nccs3)cc2)C1=O` the Potency was inconclusive: 4.47 µM [inhibitor, full curve, poor fit].
With `CCN1C(=O)/C(=C2/C=Cc3cc(C)ccc3N2CC)N(C)C1=S` the Potency was inconclusive: 25.1 µM [inhibitor, partial curve].
In the case of `COc1ccccc1C(=O)N=c1sc2c(C)ccc(OC)c2n1C`, the Potency was inconclusive: 1 µM [inhibitor, full curve].
With `CCn1c(CNC(=O)c2ccc(OC)cc2)nnc1SCC(=O)Nc1ccc(F)cc1` the “activity, negative = inhibition” value was inactive: 3.18%.
In the case of `CCc1ccc(C(=O)c2cn(CC(=O)Nc3ccc(F)cc3)c3ccc(F)cc3c2=O)cc1`, the Potency was inconclusive: 11.2 µM [inhibitor, partial curve, poor fit].
With `CCOc1ccc(-c2n[nH]c(C(=O)NN)c2C)cc1` the Potency was inconclusive: 10 µM [inhibitor, partial curve].
`CCOC(=O)c1cc(S(=O)(=O)N2CCN(c3ccccc3OC)CC2)[nH]n1` was tested, and the “activity, negative = inhibition” value was inactive: 3.21%.
In the case of `NC(=O)CC(NC(=O)c1ccc(Br)cc1)c1ccc(N2CCN(c3ccc(F)cc3)CC2)c([N+](=O)[O-])c1` (stereo unspecified), the Potency was inconclusive: 28.2 µM [inhibitor, partial curve].
With `C=CCOC(=O)C1=C[C@H](c2coc3ccccc3c2=O)C[C@H](OCc2ccc(CO)cc2)O1` the Potency was inconclusive: 35.5 µM [inhibitor, single point].
For `COc1cccc(OC)c1C(=O)Nc1ccc2c3c(cccc13)CC2`, the Potency was inconclusive: 22.4 µM [inhibitor, partial curve].
For `S=c1nc(-c2cc(Cl)ccc2Cl)[nH][nH]1`, the “activity, negative = inhibition” value was inactive: -4.73%.
In the case of `N#Cc1cc2ccccc2nc1SCC(=O)Nc1ccc(S(=O)(=O)N2CCCC2)cc1`, the Potency was inconclusive: 1.78 µM [inhibitor, partial curve, poor fit].
`Cc1ccc(/C=C/C(=O)Nc2nccs2)o1` was tested, and the Potency was inconclusive: 35.5 µM [inhibitor, single point].
In the case of `Cc1oc(/N=C/c2ccccc2O)c(C#N)c1C`, the “activity, negative = inhibition” value was inactive: 4.96%.
In the case of `c1csc(C2=Nn3c(nnc3-c3ccncc3)SC2)c1`, the Potency was inconclusive: 25.1 µM [inhibitor, single point].
`COc1ccc(NCc2ccc3c(c2)OCO3)cc1Cl` was tested, and the Potency was inconclusive: 15.8 µM [inhibitor, partial curve].
In the case of `Cc1nc2ccc(-c3nc4ccc(N)cc4[nH]3)cc2[nH]1`, the Potency was active: 15.8 µM.
For `COc1cc(N=Nc2cccc(S(N)(=O)=O)c2)c2ccccc2c1N`, the Potency was active: 1.58 µM.
For `COc1ccc2nc(-n3c(O)c(C4=c5ccccc5=NC4=O)[nH]c3=S)sc2c1`, the Potency was active: 2.24 µM.
For `C/C(=C\C(=O)c1ccccc1)Nc1ccc(N2CCOCC2)cc1`, the Potency was inconclusive: 3.98 µM [inhibitor, full curve].
In the case of `COc1cccc(CN2CCN(C(=O)c3cc(-c4cccnc4)nc4ccc(C)cc34)CC2)c1`, the “activity, negative = inhibition” value was inactive: -3.74%.
`COc1cc(-c2nn3c(COc4ccccc4)nnc3s2)cc(OC)c1OC` was tested, and the Potency was inconclusive: 20 µM [inhibitor, partial curve, poor fit].
With `COC(=O)[C@@H]1C[C@@]2(O)[C@@H](O)[C@@H](O)[C@@H](O)C[C@H]2N1Cc1ccc(Cl)cc1` the Potency was “inactive”.
`Cc1ccc(C(=O)C2CCN(CC(=O)Nc3ccc(N(C)C)cc3)CC2)cc1` was tested, and the Potency was inconclusive: 25.1 µM [inhibitor, partial curve, poor fit].
`CCOC(=O)C1=C(CSc2nc3c(cc2C#N)CN(C)CC3)OC(N)=C(C#N)C1c1ccncc1` (stereo unspecified) was tested, and the Potency was inconclusive: 14.1 µM [inhibitor, partial curve].
With `CCOC(=O)C1CCCN(c2oc(-c3ccc(OC)cc3)nc2C#N)C1` (stereo unspecified) the Potency was inconclusive: 15.8 µM [inhibitor, partial curve].
